Data as given in the supplement of paper PMC8728848.
Some of the results follow.

Key:
Assay in all cases: glycan array binding signal (z-score within array); higher = stronger binding
Details in all cases: glycan notation: IUPAC condensed, linker removed
[1] = biological target: Neu5Ac(a2-3)Gal(b1-4)GlcNAc
In short: (§1)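 From the Consortium for Functional Glycomics database, 3228 arrays were curated, keeping only those whose protein sequence was available. Binding is given as a within-array Z-score averaged across arrays sharing a protein sequence and across linkers. Negative Z-scores can be read as non-binding.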

[2] = biological target: Neu5Ac(a2-3)Gal(b1-4)GlcNAc(b1-2)Man(a1-3)[GlcNAc(b1-2)Man(b1-4)GlcNAc(b1-2)Man(a1-6)]Man(b1-4)GlcNAc(b1-4)GlcNAc
In short: as §1

[3] = biological target: Neu5Ac(a2-3)Gal(b1-4)GlcNAc(b1-2)Man(a1-3)[Neu5Ac(a2-6)Gal(b1-4)GlcNAc(b1-2)Man(a1-6)]Man(b1-4)GlcNAc(b1-4)GlcNAc
In short: as §1

[4] = biological target: Neu5Ac(a2-3)Gal(b1-4)GlcNAc(b1-3)Gal(b1-3)GlcNAc
In short: as §1

[5] = biological target: Neu5Ac(a2-3)Gal(b1-4)GlcNAc(b1-3)Gal(b1-4)GlcNAc
In short: as §1

[6] = biological target: Neu5Ac(a2-3)Gal(b1-4)GlcNAc(b1-3)Gal(b1-4)GlcNAc(b1-3)Gal(b1-4)GlcNAc
In short: as §1

[7] = biological target: Neu5Ac(a2-3)Gal(b1-4)GlcNAc(b1-3)Gal(b1-4)[Fuc(a1-3)]GlcNAc
In short: as §1

[8] = biological target: Neu5Ac(a2-3)Gal(b1-4)GlcNAc(b1-3)GalNAc
In short: as §1

[9] = biological target: Neu5Ac(a2-3)Gal(b1-4)GlcNAc(b1-6)[Gal(b1-3)]GalNAc
In short: as §1

[10] = biological target: Neu5Ac(a2-3)Gal(b1-4)GlcNAc(b1-6)[Neu5Ac(a2-3)Gal(b1-3)]GalNAc
In short: as §1

[11] = biological target: Neu5Ac(a2-3)Gal(b1-4)GlcNAc6S
In short: as §1

[12] = biological target: Neu5Ac(a2-3)Gal(b1-4)[Fuc(a1-3)]GlcNAc
In short: as §1

[13] = biological target: Neu5Ac(a2-3)Gal(b1-4)[Fuc(a1-3)]GlcNAc(b1-3)Gal
In short: as §1

[14] = biological target: Neu5Ac(a2-3)Gal(b1-4)[Fuc(a1-3)]GlcNAc(b1-3)Gal(b1-4)GlcNAc
In short: as §1

[15] = biological target: Neu5Ac(a2-3)Gal(b1-4)[Fuc(a1-3)]GlcNAc(b1-3)Gal(b1-4)[Fuc(a1-3)]GlcNAc(b1-3)Gal(b1-4)[Fuc(a1-3)]GlcNAc
In short: as §1

[16] = biological target: Neu5Ac(a2-3)Gal(b1-4)[Fuc(a1-3)]GlcNAc(b1-3)GalNAc
In short: as §1

[17] = biological target: Neu5Ac(a2-3)Gal(b1-4)[Fuc(a1-3)]GlcNAc(b1-6)[Gal(b1-3)]GalNAc
In short: as §1

[18] = biological target: Neu5Ac(a2-3)Gal(b1-4)[Fuc(a1-3)]GlcNAc(b1-6)[Neu5Ac(a2-3)Gal(b1-3)]GalNAc
In short: as §1

[19] = biological target: Neu5Ac(a2-3)Gal(b1-4)[Fuc(a1-3)]GlcNAc6S
In short: as §1

[20] = biological target: Neu5Ac(a2-3)Gal6S(b1-4)GlcNAc
In short: as §1

[21] = biological target: Neu5Ac(a2-3)Gal6S(b1-4)[Fuc(a1-3)]GlcNAc
In short: as §1

Neu5Ac(a2-3)GalNAc = biological target: Neu5Ac(a2-3)GalNAc
In short: as §1

[22] = biological target: Neu5Ac(a2-3)GalNAc(b1-4)GlcNAc
In short: as §1

[23] = biological target: Neu5Ac(a2-3)[GalNAc(b1-4)]Gal(b1-4)Glc
In short: as §1

[24] = biological target: Neu5Ac(a2-3)[GalNAc(b1-4)]Gal(b1-4)GlcNAc
In short: as §1

[25] = biological target: Neu5Ac(a2-3)[GalNAc(b1-4)]Gal(b1-4)GlcNAc(b1-3)GalNAc
In short: as §1

[26] = biological target: Neu5Ac(a2-3)[Neu5Ac(a2-6)]GalNAc
In short: as §1

Neu5Ac(a2-6)Gal = biological target: Neu5Ac(a2-6)Gal
In short: as §1

Neu5Ac(a2-6)Gal(b1-4)Glc = biological target: Neu5Ac(a2-6)Gal(b1-4)Glc
In short: as §1

[27] = biological target: Neu5Ac(a2-6)Gal(b1-4)GlcNAc
In short: as §1

[28] = biological target: Neu5Ac(a2-6)Gal(b1-4)GlcNAc(b1-2)Man(a1-3)Man(b1-4)GlcNAc(b1-4)GlcNAc
In short: as §1

[29] = biological target: Neu5Ac(a2-6)Gal(b1-4)GlcNAc(b1-2)Man(a1-3)[Gal(b1-4)GlcNAc(b1-2)Man(a1-6)]Man(b1-4)GlcNAc(b1-4)GlcNAc
In short: as §1

[30] = biological target: Neu5Ac(a2-6)Gal(b1-4)GlcNAc(b1-2)Man(a1-3)[GlcNAc(b1-2)Man(a1-6)]Man(b1-4)GlcNAc(b1-4)GlcNAc
In short: as §1

[31] = biological target: Neu5Ac(a2-6)Gal(b1-4)GlcNAc(b1-2)Man(a1-3)[GlcNAc(b1-2)Man(b1-4)GlcNAc(b1-2)Man(a1-6)]Man(b1-4)GlcNAc(b1-4)GlcNAc
In short: as §1

[32] = biological target: Neu5Ac(a2-6)Gal(b1-4)GlcNAc(b1-2)Man(a1-3)[Man(a1-6)]Man(b1-4)GlcNAc(b1-4)GlcNAc
In short: as §1

B1: SLP (Clostridium difficile), Q183M8 (protein)
chain: MATTGTQGYTVVKNDWKKAVKQLQDGLKDNSIGKITVSFNDGVVGEVAPKSANKKADRDAAAEKLYNLVNTQLDKLGDGDYVDFSVDYNLENKIITNQADAEAIVTKLNSLNEKTLIDIATKDTFGMVSKTQDSEGKNVAATKALKVKDVATFGLKSGGSEDTGYVVEMKAGAVEDKYGKVGDSTAGIAINLPSTGLEYAGKGTTIDFNKTLKVDVTGGSTPSAVAVSGFVTKDDTDLAKSGTINVRVINAKEESIDIDASSYTSAENLAKRYVFDPDEISEAYKAIVALQNDGIESNLVQLVNGKYQVIFYPEGKRLETKSLEHHHHHH
glycan array binding signal (z-score) [1]: -0.195 | glycan array binding signal (z-score) [2]: -0.182 | glycan array binding signal (z-score) [3]: -0.202 | glycan array binding signal (z-score) [4]: -0.189 | glycan array binding signal (z-score) [5]: -0.18 | glycan array binding signal (z-score) [6]: -0.192 | glycan array binding signal (z-score) [7]: -0.159 | glycan array binding signal (z-score) [8]: -0.143 | glycan array binding signal (z-score) [9]: -0.178 | glycan array binding signal (z-score) [10]: -0.195 | glycan array binding signal (z-score) [11]: -0.167 | glycan array binding signal (z-score) [12]: -0.177 | glycan array binding signal (z-score) [13]: -0.195 | glycan array binding signal (z-score) [14]: -0.03 | glycan array binding signal (z-score) [15]: -0.148 | glycan array binding signal (z-score) [16]: 0.228 | glycan array binding signal (z-score) [17]: -0.101 | glycan array binding signal (z-score) [18]: -0.014 | glycan array binding signal (z-score) [19]: -0.21 | glycan array binding signal (z-score) [20]: -0.165 | glycan array binding signal (z-score) [21]: -0.192 | glycan array binding signal (z-score) (Neu5Ac(a2-3)GalNAc): -0.183 | glycan array binding signal (z-score) [22]: -0.183 | glycan array binding signal (z-score) [23]: -0.203 | glycan array binding signal (z-score) [24]: -0.195 | glycan array binding signal (z-score) [25]: -0.106 | glycan array binding signal (z-score) [26]: -0.181 | glycan array binding signal (z-score) (Neu5Ac(a2-6)Gal): -0.181 | glycan array binding signal (z-score) (Neu5Ac(a2-6)Gal(b1-4)Glc): -0.184 | glycan array binding signal (z-score) [27]: -0.183 | glycan array binding signal (z-score) [28]: -0.163 | glycan array binding signal (z-score) [29]: -0.203 | glycan array binding signal (z-score) [30]: 0.044 | glycan array binding signal (z-score) [31]: -0.185 | glycan array binding signal (z-score) [32]: -0.199
